T1: ARF11 (Arabidopsis thaliana) (UniProt Q9ZPY6)
T1 sequence: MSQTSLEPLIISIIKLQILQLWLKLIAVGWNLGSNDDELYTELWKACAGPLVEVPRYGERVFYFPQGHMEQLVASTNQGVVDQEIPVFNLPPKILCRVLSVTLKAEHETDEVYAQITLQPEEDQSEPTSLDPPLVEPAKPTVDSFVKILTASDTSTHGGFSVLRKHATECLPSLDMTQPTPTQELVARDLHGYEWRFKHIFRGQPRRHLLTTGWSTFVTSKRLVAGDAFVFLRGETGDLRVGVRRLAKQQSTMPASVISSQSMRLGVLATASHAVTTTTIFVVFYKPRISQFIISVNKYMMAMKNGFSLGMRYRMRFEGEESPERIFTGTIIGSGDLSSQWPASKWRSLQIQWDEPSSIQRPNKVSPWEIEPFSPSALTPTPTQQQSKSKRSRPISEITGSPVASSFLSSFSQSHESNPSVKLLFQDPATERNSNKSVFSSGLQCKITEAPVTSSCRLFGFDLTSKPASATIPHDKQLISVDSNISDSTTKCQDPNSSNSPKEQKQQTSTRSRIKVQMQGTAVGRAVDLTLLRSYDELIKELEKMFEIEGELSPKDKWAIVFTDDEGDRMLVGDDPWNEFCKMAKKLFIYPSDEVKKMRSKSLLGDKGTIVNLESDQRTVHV

T2: ARF6 (Arabidopsis thaliana) (UniProt Q9ZTX8)
T2 sequence: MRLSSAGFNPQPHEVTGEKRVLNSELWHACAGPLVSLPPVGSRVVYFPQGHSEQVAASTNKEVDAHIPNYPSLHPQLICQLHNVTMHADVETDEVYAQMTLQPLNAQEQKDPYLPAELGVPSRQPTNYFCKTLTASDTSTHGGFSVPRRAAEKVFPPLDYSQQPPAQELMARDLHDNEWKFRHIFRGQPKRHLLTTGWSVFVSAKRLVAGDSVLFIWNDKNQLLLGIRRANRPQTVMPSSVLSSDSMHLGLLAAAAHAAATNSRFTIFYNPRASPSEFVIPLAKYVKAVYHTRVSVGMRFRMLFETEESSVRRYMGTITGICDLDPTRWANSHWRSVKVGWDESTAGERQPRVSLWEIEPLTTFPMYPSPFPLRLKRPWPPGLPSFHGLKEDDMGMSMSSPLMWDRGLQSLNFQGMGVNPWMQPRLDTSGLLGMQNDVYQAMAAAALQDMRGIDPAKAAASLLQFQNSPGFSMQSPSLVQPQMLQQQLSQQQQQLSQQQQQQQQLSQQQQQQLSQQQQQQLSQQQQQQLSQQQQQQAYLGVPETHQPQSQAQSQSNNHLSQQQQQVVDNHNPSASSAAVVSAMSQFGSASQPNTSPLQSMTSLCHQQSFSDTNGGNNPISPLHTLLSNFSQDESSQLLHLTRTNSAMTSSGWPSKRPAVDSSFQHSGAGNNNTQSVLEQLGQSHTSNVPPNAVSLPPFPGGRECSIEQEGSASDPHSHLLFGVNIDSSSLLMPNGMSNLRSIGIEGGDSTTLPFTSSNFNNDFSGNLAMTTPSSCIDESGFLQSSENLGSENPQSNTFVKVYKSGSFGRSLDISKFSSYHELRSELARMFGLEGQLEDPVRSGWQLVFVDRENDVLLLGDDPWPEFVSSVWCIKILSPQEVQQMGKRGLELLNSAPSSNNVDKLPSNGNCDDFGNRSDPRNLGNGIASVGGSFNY

T3: ARF12 (Arabidopsis thaliana) (UniProt Q9XID4)
T3 sequence: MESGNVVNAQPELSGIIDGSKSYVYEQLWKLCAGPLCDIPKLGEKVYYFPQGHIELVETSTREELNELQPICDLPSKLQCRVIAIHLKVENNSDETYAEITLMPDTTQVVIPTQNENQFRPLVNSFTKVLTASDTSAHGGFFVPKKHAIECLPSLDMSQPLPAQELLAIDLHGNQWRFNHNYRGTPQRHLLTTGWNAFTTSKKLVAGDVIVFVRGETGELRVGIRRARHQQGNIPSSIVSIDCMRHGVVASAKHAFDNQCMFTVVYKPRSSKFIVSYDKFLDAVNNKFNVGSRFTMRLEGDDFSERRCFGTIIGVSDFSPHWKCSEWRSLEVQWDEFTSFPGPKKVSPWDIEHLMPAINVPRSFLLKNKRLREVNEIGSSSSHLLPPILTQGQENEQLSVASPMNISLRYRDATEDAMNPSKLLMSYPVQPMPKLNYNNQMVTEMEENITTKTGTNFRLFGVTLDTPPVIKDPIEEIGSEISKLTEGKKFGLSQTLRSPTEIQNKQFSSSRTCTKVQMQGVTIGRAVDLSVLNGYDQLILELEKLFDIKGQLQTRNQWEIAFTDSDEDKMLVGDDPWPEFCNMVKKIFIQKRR

B1: Aux/IAA28 (protein, UniProt Q9XFM0 1-175)
chain: MEEEKRLELRLAPPCHQFTSNNNINGSKQKSSTKETSFLSNNRVEVAPVVGWPPVRSSRRNLTAQLKEEMKKKESDEEKELYVKINMEGVPIGRKVNLSAYNNYQQLSHAVDQLFSKKDSWDLNRQYTLVYEDTEGDKVLVGDVPWEMFVSTVKRLHVLKTSHAFSLSPRKHGKE
B2: Aux/IAA19 (protein, UniProt O24409 1-197)
chain: MEKEGLGLEITELRLGLPGRDVAEKMMKKRAFTEMNMTSSGSNSDQCESGVVSSGGDAEKVNDSPAAKSQVVGWPPVCSYRKKNSCKEASTTKVGLGYVKVSMDGVPYLRKMDLGSSQGYDDLAFALDKLFGFRGIGVALKDGDNCEYVTIYEDKDGDWMLAGDVPWGMFLESCKRLRIMKRSDATGFGLQPRGVDE
B3: Aux/IAA29 (protein, UniProt Q93WC4 1-251)
chain: MELDLGLSLSPHKSSKLGFNFDLNKHCAIEGAASCLGTEKLRFEATFGLGNVEENCYMPKQRLFALNGQPNEEDEDPLESESSIVYDDEEENSEVVGWPPVKTCMIKYGSYHHRHIRNHHHCPYHHRGRRITAMNNNISNPTTATVGSSSSSSISSRSSMYVKVKMDGVAIARKVDIKLFNSYESLTNSLITMFTEYEDCDREDTNYTFTFQGKEGDWLLRGDVTWKIFAESVHRISIIRDRPCAYTRCLF
B4: Aux/IAA31 (protein, UniProt Q8H174 1-158)
chain: MEVSNSCSSFSSSSVDSTKPSPSESSVNLSLSLTFPSTSPQREARQDWPPIKSRLRDTLKGRRLLRRGDDTSLFVKVYMEGVPIGRKLDLCVFSGYESLLENLSHMFDTSIICGNRDRKHHVLTYEDKDGDWMMVGDIPWDMFLETVRRLKITRPERY
B5: Aux/IAA16 (protein, UniProt O24407 1-236)
chain: MINFEATELRLGLPGGNHGGEMAGKNNGKRGFSETVDLKLNLSSTAMDSVSKVDLENMKEKVVKPPAKAQVVGWPPVRSFRKNVMSGQKPTTGDATEGNDKTSGSSGATSSASACATVAYVKVSMDGAPYLRKIDLKLYKTYQDLSNALSKMFSSFTIGNYGPQGMKDFMNESKLIDLLNGSDYVPTYEDKDGDWMLVGDVPWEMFVDSCKRIRIMKGSEAIGLAPRALEKCKNRS
B6: Aux/IAA27 (protein, UniProt Q9ZSY8 1-305)
chain: MSVSVAAEHDYIGLSEFPTMEATTMSDKTKTRDNNNGLNFKATELRLGLPGSESPERVDSRFLALNKSSCPVSGAKRVFSDAINDSNKWVFSPGSTTATGDVGSGSGPRTSVVKDGKSTTFTKPAVPVKEKKSSATAPASKAQVVGWPPIRSFRKNSMASSQSQKPGNNSETEEAEAKSGPEQPCLYVKVSMEGAPYLRKIDLKTYKSYLELSSALEKMFSCFTIGQFGSHGGCGRDGLNESRLTDLLRGSEYVVTYEDKDSDWMLVGDVPWEMFICSCKKLRIMKSSEAIGLAPRVMEKCRSRN
B7: Aux/IAA3 (protein, UniProt Q38822 1-189)
chain: MDEFVNLKETELRLGLPGTDNVCEAKERVSCCNNNNKRVLSTDTEKEIESSSRKTETSPPRKAQIVGWPPVRSYRKNNIQSKKNESEHEGQGIYVKVSMDGAPYLRKIDLSCYKGYSELLKALEVMFKFSVGEYFERDGYKGSDFVPTYEDKDGDWMLIGDVPWEMFICTCKRLRIMKGSEAKGLGCGV
B8: Aux/IAA18 (protein, UniProt O24408 1-267)
chain: MEGYSRNGEISPKLLDLMIPQERRNWFHDEKNSVFKTEEKKLELKLGPPGEEDDDESMIRHMKKEPKDKSILSLAGKYFSPSSTKTTSHKRTAPGPVVGWPPVRSFRKNLASGSSSKLGNDSTTSNGVTLKNQKCDAAAKTTEPKRQGGMFVKINMYGVPIGRKVDLSAHNSYEQLSFTVDKLFRGLLAAQRDFPSSIEDEKPITGLLDGNGEYTLTYEDNEGDKMLVGDVPWQMFVSSVKRLRVIKTSEISSALTYGNGKQEKMRR
B9: Aux/IAA26 (protein, UniProt Q8LAL2 1-269)
chain: MEGCPRNREIGPKLLDLIPQGRKWYQEDKNNTDQEKKLELRLGPPGGDEEDHSAIKKKNTEIRNIKKETEDKSFHCFNGNHFSPSNKTTSVPHISQKRTAPGPVVGWPPVRSFRKNLASTSSSKLGNESSHGGQINKSDDGEKQVETKKEGMFVKINMDGVPIGRKVDLNAYNSYEQLSFVVDKLFRGLLAAQRDISDGQGEEKPIIGLLDGKGEFTLTYEDNEGDKMLVGDVPWQMFVSSVKRLRVIKSSEISSALTFGCSKQEKMMH
B10: Aux/IAA30 (protein, UniProt Q9M1R4 1-172)
chain: MGRGRSSSSSSIESSCKSNPFGVSSSNTRNLSTDLRLGLSFGSSSGQYYNGGDNHEYDGVGAAEEMMIMEEEEQNECNSVGSFYVKVNMEGVPIGRKIDLLSLNGYHDLITTLDYMFNASILWAEEEDMCSEKSHVLTYADKEGDWMMVGDVPWEMFLSSVRRLKISRAYHY
B11: Aux/IAA20 (protein, UniProt O24410 1-175)
chain: MGRGRSSSSSSIESSSKSNPFGASSSTRNLSTDLRLGLSFGTSSGTQYFNGGYGYSVAAPAVEDAEYVAAVEEEEENECNSVGSFYVKVNMEGVPIGRKIDLMSLNGYRDLIRTLDFMFNASILWAEEEDMCNEKSHVLTYADKEGDWMMVGDVPWEMFLSTVRRLKISRANYHY

From article PMC4274898 come the findings set out here.

No constants are given. Whether binding was seen depends on the method and setting. Some results given as binding are weak or reduced against the parent protein; the word gives no strength.

In the first test the target is T1, ARF11 (Arabidopsis thaliana). Put plainly: two-hybrid; S. cerevisiae AH109 co-transformed with pGBKT7-ARF (bait) and pGADT7-Aux/IAA (prey); growth on SD/-Ade-His-Leu-Trp against SD/-Leu/-Trp; at least 10 independent colonies; serial dilutions for strength.
As to B1, the binding entry is “no binding”.

Take B2: the binding result is “no binding”.

Turning to B3, the binding result is “no binding”.

For the molecule B4, the binding entry is on record as “no binding”.

For the molecule B5, the binding entry is “no binding”.

B6: the binding entry is recorded as “no binding”.

In the case of B7, the binding result is recorded as “no binding”.

In the case of B8, the binding entry is listed as “no binding”.

As for B9, the binding entry is given as “no binding”.

B10: the binding result is on record as “no binding”.

Consider B11, for which the binding result was “no binding”.

In a further test the target is T2, ARF6 (Arabidopsis thaliana). The description is as above.
With B1, the binding entry is recorded as “binds”.

Regarding B2, the binding entry is “binds”.

With B3, the binding result was “binds”.

Turning to B4, the binding entry was “binds”.

Regarding B5, the binding entry was “binds”.

Consider B6, for which the binding entry was “binds”.

In the case of B7, the binding result is on record as “binds”.

As to B8, the binding result was “binds”.

Take B9: the binding entry was “binds”.

As to B10, the binding entry is listed as “binds”.

B11: the binding entry is “binds”.

In another test the target is T3, ARF12 (Arabidopsis thaliana). The test is described as above.
Turning to B1, the binding result was “no binding”.

As for B2, the binding result was “no binding”.

For the molecule B3, the binding entry is on record as “no binding”.

As to B4, the binding result is listed as “no binding”.

B5: the binding entry is “no binding”.

On to B6, for which the binding result was “no binding”.

In the case of B7, the binding entry is on record as “no binding”.

In the case of B8, the binding result is listed as “no binding”.

With B9, the binding entry is listed as “no binding”.

Consider B10, for which the binding entry is “no binding”.

Regarding B11, the binding result is reported as “no binding”.
